PubChem BioAssay AID624172 (National Center for Advancing Translational Sciences (NCATS), 2012)
Hit rate of the full screen: of about 380,000 compounds, about 25 (0.007%) were called active. The inconclusive results got no clear call from the source; some entries with a clear call stand among them for comparison. Calls follow the shape of the dose curve; as a rule, active = well fitted activation curve with a large enough effect; inconclusive = small, poorly fitted or top-dose-only effect; inactive = no such curve, though single readings can be large or run the other way. Potencies beside an inconclusive call are fits to weak or partial responses and may not hold up.

What follows are compounds tested against Glucagon-like peptide 1 receptor (Homo sapiens) (UniProt P43220) (assay: qHTS of GLP-1 Receptor Agonists). Conditions: HEK293 GLP-1R CRE-luciferase, luminescence, 4-6 h, cells express a hypersensitive GLP-1R form; activation: at 45.6 µM (top of the series) unless noted.
For activation in this document: % of control where 0% means no effect.
Potency is read from the fitted curve at half-maximal effect; tags tell the direction and shape of the fitted curve.

Chain of UniProt P43220 (P43220 whole entry, looked up): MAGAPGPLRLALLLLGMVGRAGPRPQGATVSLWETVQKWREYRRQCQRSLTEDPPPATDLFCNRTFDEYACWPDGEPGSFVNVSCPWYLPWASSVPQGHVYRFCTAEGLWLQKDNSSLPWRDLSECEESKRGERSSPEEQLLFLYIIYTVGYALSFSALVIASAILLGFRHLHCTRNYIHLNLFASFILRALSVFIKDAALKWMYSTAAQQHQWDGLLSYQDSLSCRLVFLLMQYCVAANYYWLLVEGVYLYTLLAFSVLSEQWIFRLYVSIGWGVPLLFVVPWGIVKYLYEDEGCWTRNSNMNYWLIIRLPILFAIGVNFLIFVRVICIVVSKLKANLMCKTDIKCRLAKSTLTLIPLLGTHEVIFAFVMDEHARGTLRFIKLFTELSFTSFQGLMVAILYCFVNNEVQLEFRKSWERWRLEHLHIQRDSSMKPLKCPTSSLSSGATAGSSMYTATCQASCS

Row | Structure (SMILES) | Potency | activation
1 | Clc1cccc(CSc2ncnc3c2ncn3C2CCCCO2)c1 (stereo not drawn) | inconclusive: 14.1 µM [activator, single point] | –
2 | Cc1cccc(NC(=O)c2ccc(COc3ccccc3)o2)n1 | – | inactive: -2.86%
3 | O=C(c1ccco1)N1CCN(Cc2cccc(F)c2)CC1 | – | inactive: -1.99%
4 | N=C1S/C(=C\c2ccco2)C(=O)N1c1nccs1 | – | inactive: -2.76%
5 | O=c1c2ccccc2ncn1CCCSc1ccccc1 | inconclusive: 15.8 µM [activator, single point] | –
6 | CCc1ccccc1N(CC(=O)NC1CCCCC1)C(=O)CCCC(=O)Nc1ccccn1 | – | inactive: -0.0017%
7 | CC(Nc1nc(-c2ccncc2)nc2ccccc12)c1ccccc1 (stereo not drawn) | inconclusive: 11.2 µM [activator, single point] | –
8 | CC1(C)CC(=O)C2=C(C1)OC(N)=C(C#N)C2C#Cc1ccccc1 (stereo not drawn) | – | inactive: 1.54%
9 | O=c1c2ccccc2nnn1CSc1nc2ccccc2c(=O)n1CCCO | inconclusive: 25.1 µM [activator, single point] | –
10 | COc1ccccc1Oc1ccc(N/C=C/C(=O)c2ccc(C)o2)cc1 | inconclusive: 14.1 µM [activator, partial curve, poor fit] | –
11 | Cc1ccc(-c2nc3cnccn3c2Nc2c(C)cccc2C)o1 | – | inactive: 13.5%
12 | CCn1c2ccccc2c2nnc(SCc3ccc(C(=O)OC)o3)nc21 | inconclusive: 14.1 µM [activator, partial curve, poor fit] | –
13 | COCc1cc(C)nc2sc(C(=O)OC(C)C)c(N)c12 | inconclusive: 14.1 µM [activator, partial curve, poor fit] | –
14 | COc1cccc(Cn2c(=O)c3ccccc3n3nc(C)cc23)c1 | inconclusive: 12.6 µM [activator, partial curve, poor fit] | –
15 | CNC[C@H](O)c1ccc(OC(=O)C(C)(C)C)c(OC(=O)C(C)(C)C)c1 | – | inconclusive: 47.4% [activator] [at 19.8 µM]
16 | O=C(c1ccc(-c2ccccc2Cl)o1)N1CCN(c2ccccc2O)CC1 | inconclusive: 15.8 µM [activator, partial curve, poor fit] | –
17 | Cc1cccc(-n2ccnc2SCC(=O)Nc2ccc(F)cc2F)c1C | – | inactive: 12.9%
18 | Nc1nc2sc3c(c2c(=O)s1)CCCC3 | inconclusive: 11.2 µM [activator, partial curve] | –
19 | S=C(c1ccc(-c2ccc(Cl)cc2Cl)o1)N1CCCCC1 | – | inactive: 5.4%
20 | Cc1cc(C(=O)NCc2ccccc2Br)no1 | inconclusive: 35.5 µM [activator, single point] | –
21 | CCN(CC)CCCNC(=O)c1oc2ccc3c(c2c1C)C(O)CC(C)(C)O3 (stereo not drawn) | inconclusive: 22.4 µM [activator, single point] | –
22 | COc1ccc(-c2ccc(C(=O)Nc3ccc(NC(C)=O)cc3)c3occc23)c(C)c1 | – | inactive: -3.09%
23 | CCCn1c(SCc2ccc(C(=O)OC)o2)nc2ccccc2c1=O | inconclusive: 14.1 µM [activator, single point] | –
24 | COC(=O)c1ccc(C(=O)OC)c(NC(=S)N2CCN(c3ccccc3)CC2)c1 | – | inactive: -0.308%

Row | Structure (SMILES) | Potency | activation
25 | COc1ccc(-c2c3c(cc(C)[n+]2[O-])oc2ccc(OC)cc23)cc1 | inconclusive: 35.5 µM [activator, partial curve, poor fit] | –
26 | CC(=O)Nc1nc(CC(C)C)cc2c1c(=O)oc1ccccc12 | inconclusive: 10 µM [activator, partial curve] | –
27 | CSc1ccc(CN(C)C(=O)COc2ccc(C(=O)c3ccccc3)cc2)cc1 | inconclusive: 35.5 µM [activator, single point] | –
28 | Cc1ccccc1NC(=O)CNC(=O)c1ccc(C(F)(F)F)cc1 | – | inactive: 0.979%
29 | Cc1ccc(CCNC(=O)c2ccc3c(Cl)c4c(nc3c2)CCCC4)cc1 | – | inactive: 0.133%
30 | COc1ccc(OC)c(-c2cc(C(=O)Nc3c(C)nn(Cc4ccccc4Cl)c3C)no2)c1 | – | inactive: 8.4%
31 | CCCCC1C2=C(CC(C)(C)CC2=O)OC2=C1C(=O)CC(C)(C)C2 | – | inactive: 4.1%
32 | CCCCCCN1C[C@@H](O)[C@H](n2cc(-c3ccc(F)cc3)nn2)C[C@@H]1c1ccc(C)cc1 | – | inactive: 4.03%
33 | CCNC(=O)Cc1c(OC)ccc2cc(Br)ccc12 | – | inactive: -4.81%
34 | COC(=O)[C@@H]1[C@@H](C)N(Cc2ccccc2)C(=O)N[C@H]1c1ccccc1 | – | inactive: 4.23%
35 | COc1ccc(Cc2noc(CN(C)Cc3ccc(-n4cccn4)cc3)n2)cc1OC | inconclusive: 17.8 µM [activator, single point] | –
36 | COc1ccc(-c2oc3cc(O)c(OC)c(O)c3c(=O)c2OC)cc1O | inconclusive: 6.31 µM [activator, partial curve, poor fit] | –
37 | COc1ccccc1N1C(N)=NC(N)=NC1(C)C | inactive | –
38 | Cc1cc(NC2CCCC2)n2nc(C)c(-c3ccccc3)c2n1 | inconclusive: 17.8 µM [activator, partial curve, poor fit] | –
39 | CC1CCc2c(sc3ncn(Cc4ccc(C(=O)O)cc4)c(=O)c23)C1 (stereo not drawn) | inconclusive: 2 µM [activator, partial curve, poor fit] | –
40 | COCc1cc(C)nc2sc(C(=O)Nc3cccc(OC)c3)c(N)c12 | inconclusive: 12.6 µM [activator, partial curve] | –
41 | COc1ccc(/C=N/NC(=O)C(C)n2nnc3ccccc32)cc1OC (stereo not drawn) | inconclusive: 15.8 µM [activator, single point] | –
42 | CCOC(=O)N1CCN(C(=O)/C=C/c2ccc(C(C)(C)C)cc2)CC1 | – | inactive: 5.18%
43 | Cc1ccc(S(=O)(=O)N2CCOCC2)cc1NC(=O)CNCc1cccnc1 | – | inactive: -5.61%
44 | CCc1ccc2c(CN(C)Cc3ccccc3OC)cc(=O)oc2c1 | inconclusive: 20 µM [activator, partial curve] | –
45 | CN(c1ccccc1)c1nc(N)c([N+](=O)[O-])c(NCc2ccco2)n1 | inconclusive: 3.16 µM [activator, full curve] | –
46 | CSc1nc(S(=O)(=O)c2ccccc2)c(Cl)s1 | – | inactive: -2%
47 | CCCc1ccc2oc(C(=O)N(C)Cc3nccs3)c(C)c2c1 | inconclusive: 11.2 µM [activator, single point] | –
48 | Fc1ccc(CNC(=S)NCc2cccc(Cl)c2)cc1 | – | inactive: -3.62%
